Among all 370,000 compounds or so, about 150 (0.041%) were called active. Inconclusive means that the source gave no clear call. Such entries were picked first, then a sample of the others. The call rests on the fitted dose curve; in most records, active means well fitted inhibition curve with a large enough effect; inconclusive means small, poorly fitted or top-dose-only effect; inactive means flat fitted curve, though single readings scatter. No potency is given beside an inconclusive call; the fits are too rough.
The compounds below were run against Beta-lactamase (Escherichia coli (strain K12)) (UniProt P00811) (assay: qHTS Inhibitors of AmpC Beta-Lactamase (assay with detergent)). Conditions: AmpC hydrolysis of nitrocefin, absorbance 480 nm, 0.01% Triton; series mostly up to 114 µM.
Procedure, shortened: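 20 mM phosphate pH 7.0 + 0.01% (detergent screen) or 0.0001% Triton X-100; 5.3 nM AmpC reagent; cpd preinc 15 min RT; nitrocefin (800 uM stock) to start; A480 q20 s × 4 min; Activity was normalised to no-enzyme and no-compound control wells.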
Further: nearly all actives have a fitted effect of over 25% in size.
Potency means the concentration at half of the fitted maximal effect; tags describe the fitted curve by direction and shape.

Chain of UniProt P00811 (P00811 whole entry, looked up): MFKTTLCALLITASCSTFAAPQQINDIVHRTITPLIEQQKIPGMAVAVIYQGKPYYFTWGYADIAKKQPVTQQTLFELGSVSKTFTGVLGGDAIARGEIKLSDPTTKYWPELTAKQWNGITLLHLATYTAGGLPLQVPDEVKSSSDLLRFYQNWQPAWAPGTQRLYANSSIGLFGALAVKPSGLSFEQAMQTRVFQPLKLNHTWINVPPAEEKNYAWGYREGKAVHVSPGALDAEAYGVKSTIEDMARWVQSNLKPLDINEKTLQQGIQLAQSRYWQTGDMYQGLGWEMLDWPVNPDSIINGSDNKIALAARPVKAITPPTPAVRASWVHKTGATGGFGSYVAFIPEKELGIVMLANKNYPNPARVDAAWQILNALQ

SMILES	Potency
Cc1ccc(NC(=O)Nc2cnccn2)cc1Cl	inactive
CCOC(=O)CCSc1nc(C)c2cc(OC)ccc2n1	inconclusive [inhibitor, partial curve]
Cc1cc(C)cc(NC(=O)C(=O)NCc2ccccn2)c1	inconclusive [inhibitor, single point]
Cc1c(C(=O)OC(C)C)[nH]c2c1C(=O)CC(C)(C)C2	inconclusive [inhibitor, full curve, poor fit]
CCCc1nc2oc3c(NCCCN(C)C)ncnc3c2c2c1CCCC2	inactive
O=c1oc2ccccc2c(O)c1CN1CCCCC1	inconclusive [inhibitor, partial curve, poor fit]
O=C(CCS(=O)(=O)c1nc(-c2ccc3c(c2)OCO3)cc(C(F)(F)F)n1)Nc1ccccc1F	inconclusive [inhibitor, single point]
O=C(Nc1ccccc1)N(Cc1cccs1)C1CCCC1	inconclusive [inhibitor, full curve]
Cc1ccc(NC(=O)Nc2ccc3c(c2)OCO3)c(OC(F)F)c1	inactive
CC1CCCCN1S(=O)(=O)c1ccc(NC(=O)CSc2nnnn2C)cc1 (centres undefined)	inactive
O=C(O)c1ccc(S(=O)(=O)NC2CCCCC2)cc1	inconclusive [inhibitor, partial curve, poor fit]
CCC(C)c1ccccc1NC(=O)COC(=O)c1ccc(N2CCCC2)c([N+](=O)[O-])c1 (centres undefined)	inconclusive [inhibitor, partial curve]
CC(SCc1ccccc1)C(=O)N/N=C/c1cc2c(cc1Br)OCO2 (centres undefined)	inconclusive [inhibitor, single point]
O=S(=O)(c1ccc2c(c1)OCCO2)N(Cc1ccc(F)cc1)Cc1nnc(-c2cccs2)o1	inconclusive [inhibitor, single point]
CCOC(=O)Cc1csc(NC(=O)CSc2nc(-c3ccccc3)c(C#N)c(=O)[nH]2)n1	inconclusive [inhibitor, full curve, poor fit]
COc1ccccc1Nc1cc(C(=O)NC2CCCC2)c2ccccc2n1	inconclusive [inhibitor, single point]
Cc1c(Cl)cccc1NC(=O)CNC(=O)CCS(=O)(=O)c1ccc(F)cc1	inactive
CCOC(=O)c1cc2c(C)n(-c3ccc(OCC)cc3)c(C)c2ccc1=O	inconclusive [inhibitor, full curve, poor fit]
C=CCOC(=O)CCCC(=O)NC1CCCCC1	inconclusive [inhibitor, partial curve]
Cn1c(CC(=O)Nc2ccccc2)nnc1SCC(=O)NC1CCCC1	inactive
CCn1c(=O)cc(SCC(=O)NCCc2ccc(Cl)cc2)c2ccccc21	inconclusive [inhibitor, partial curve]
COCCNC(=O)c1sc2nc(-c3ccccc3)cn2c1C	inactive
CCOc1ccc(C2CC(=O)n3nc(C45CC6CC(CC(C6)C4)C5)nc3S2)cc1OC (centres undefined)	inactive

SMILES	Potency
O=C(Nc1ccc(Br)cc1F)c1ccncc1	inconclusive [inhibitor, partial curve]
COc1ccc(S(=O)(=O)N(C)c2ccc(C(=O)NCC3CCCO3)cc2)cc1 (centres undefined)	inconclusive [inhibitor, full curve, poor fit]
CCOc1ccc(N/C=C/C(=O)c2cc(OC)c(OC)c(OC)c2)cc1	inconclusive [inhibitor, partial curve, poor fit]
Cc1oc(-c2ccccc2)nc1CS(=O)CC(=O)N1CCc2ccccc2C1 (centres undefined)	inactive
CC(C)=CC(=O)Nc1ccc(Br)cc1	inconclusive [inhibitor, full curve]
CCn1c(C)nnc1SCC(=O)Nc1ccccc1OC	inconclusive [inhibitor, full curve, poor fit]
CN1C(=O)c2oc3ccccc3c(=O)c2C1c1ccncc1 (centres undefined)	inactive
CCc1ccc(/C=C2\SC(=S)N(CCCC(=O)Nc3nccs3)C2=O)cc1	inconclusive [inhibitor, single point]
COCCNC(=O)[C@@]1(Cc2ccccc2)C=C[C@@H](C)N1C(C)=O	inconclusive [inhibitor, single point]
COc1ccc(OC)c(NC(=O)c2cc(-c3c(C)cc(C)cc3O)n[nH]2)c1	inactive
O=C(NCCCc1ccccc1)C1CCN(S(=O)(=O)c2ccc(F)cc2)CC1	inactive
CN1C(=O)CC(c2ccccc2)CC1=O	inconclusive [inhibitor, partial curve]
C#CCOc1ccc(-c2nnc(Nc3cccc(C)c3)c3ccccc23)cc1	inconclusive [inhibitor, single point]
COc1ccc(NC(=O)Nc2cccnc2)c(OC)c1	inconclusive [inhibitor, full curve, poor fit]
COc1cnc(-c2ccccn2)nc1N(C)C	inconclusive [inhibitor, full curve, poor fit]
COc1ccccc1C1NC(=O)NC(C)=C1C(=O)OC1CCCC(C)C1 (centres undefined)	inconclusive [inhibitor, full curve, poor fit]
Cc1cc(C)c2cc(C(O)c3nnnn3Cc3ccccc3)c(=O)[nH]c2c1 (centres undefined)	inactive
Nc1c2c(nc3sc4c(c13)CCCCC4)CCCC2	inconclusive [inhibitor, partial curve]
CCOC(=O)c1cccc(NC(=O)Cn2ncc3c4ccccc4n(Cc4ccccc4)c3c2=O)c1	inactive
CCOC(=O)C1CCN(C(=O)CC2C(=O)N(Cc3ccccc3)C(C)c3nc4ccccc4n32)CC1 (centres undefined)	inconclusive [inhibitor, full curve]
COc1ccccc1N1CCN(C(=O)c2ccc3c(Cl)c4c(nc3c2)CCCC4)CC1	inconclusive [inhibitor, full curve, poor fit]
CNc1cnn(-c2ccc(C)cc2)c(=O)c1Cl	inconclusive [inhibitor, full curve, poor fit]
O=[N+]([O-])c1cccc(S(=O)(=O)Nc2cccc(-c3ccc(N4CCCC4)nn3)c2)c1	inconclusive [inhibitor, full curve, poor fit]

SMILES	Potency
CCC(CC)C(=O)N1c2ccc(F)cc2CCC1C (centres undefined)	inconclusive [inhibitor, partial curve, poor fit]
CCOc1cc(C(C(=O)NCC2CCCO2)N(C(=O)Cn2nnc3ccccc32)c2ccc(OC)c(OC)c2)ccc1O (centres undefined)	inactive
Nc1c(Cl)nc(-c2ccccc2)nc1Cl	inactive
COc1ccc(/C=C/C(=O)c2cc(F)ccc2OC(=O)c2ccccc2OC)cc1OC	inconclusive [inhibitor, single point]
COc1cccc(NC(=O)c2ccccc2-c2nc(-c3ccccc3)no2)c1	inconclusive [inhibitor, full curve, poor fit]
COC(=O)c1ccc(OC)c(Cn2c(=O)n(Cc3ccccc3)c(=O)c3c2c2cc(OC)ccc2n3C)c1	inconclusive [inhibitor, single point]
C=C(C)c1cccc(C(C)(C)NC(=O)N2CCOCC2)c1	inconclusive [inhibitor, single point]
Cc1ccccc1OCCC(=O)Nc1ccccc1C(=O)NC1CC1	inconclusive [inhibitor, partial curve, poor fit]
O=C(O)c1ccccc1C(=O)Nc1ccc(Oc2cccc3ccccc23)cc1	inactive
Cc1ccnc(SCCn2c(N3CCC(C)CC3)nc3c2c(=O)[nH]c(=O)n3C)n1	inconclusive [inhibitor, full curve, poor fit]
COCCn1cnc2cc(C)c(C)cc21	inconclusive [inhibitor, partial curve]
Cc1ccc(N2C(=O)C3ON(c4ccccc4)C(c4ccncc4)C3C2=O)c(C)c1 (centres undefined)	inactive
Cc1ccc2nc(Cl)c(/C=N/n3c(C)nnc3C)cc2c1	inactive
COc1ccccc1NC(=O)Nc1nc(CC(=O)NCc2ccc(F)cc2)cs1	inconclusive [inhibitor, full curve]
CCC(C)NC(=O)C1CCN(S(=O)(=O)c2ccc(Br)s2)CC1 (centres undefined)	inconclusive [inhibitor, partial curve, poor fit]
CC(=Nc1ccccc1)C1=C(O)COC1=O	inconclusive [inhibitor, full curve, poor fit]
Cc1ccccc1NC(=O)CSCCN1C(=O)c2ccccc2C1=O	inconclusive [inhibitor, full curve, poor fit]
Cn1c2ccccc2c2nnc(SCC(=O)NC3CC3)nc21	inconclusive [inhibitor, full curve, poor fit]
Cc1ccc(C)c(SCC(=O)c2ccc[nH]2)c1	inactive
Cc1cc(C(=O)CSc2nc3ccc(Cl)cc3[nH]2)c(C)n1CC1CCCO1 (centres undefined)	inconclusive [inhibitor, full curve, poor fit]
CCN(CC)/C(=N\S(=O)(=O)c1ccccc1C)c1ccccc1	inconclusive [inhibitor, partial curve, poor fit]
CCOC(=O)C(Cc1ccccc1)C(=O)Nc1nccs1 (centres undefined)	inconclusive [inhibitor, partial curve]
COc1ccc(-c2nc3ccccc3nc2-c2ccc(OC)cc2)cc1	inconclusive [inhibitor, full curve, poor fit]

Reference: PubChem BioAssay AID485294 (National Center for Advancing Translational Sciences (NCATS), 2010)
